Measurements: the supplement of paper PMC8728848
This is one part of the list.

Key:
Assay in all cases: glycan array binding signal (z-score within array); higher = stronger binding
Conditions in all cases: glycan notation: IUPAC condensed, linker removed
[1] = molecular target: Neu5Ac(a2-3)Gal(b1-3)GlcNAc(b1-6)GalNAc
Summary of the method: (§1)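 The binding signal is a Z-score computed within each array and averaged over linkers. Arrays of the same protein sequence at different concentrations or buffers were also averaged together. Data originate from 3228 arrays in the Consortium for Functional Glycomics database, kept only where the protein sequence was available.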

[2] = molecular target: Neu5Ac(a2-3)Gal(b1-3)GlcNAc6S
Summary of the method: as §1

[3] = molecular target: Neu5Ac(a2-3)Gal(b1-3)[Fuc(a1-4)]GlcNAc
Summary of the method: as §1

[4] = molecular target: Neu5Ac(a2-3)Gal(b1-3)[Fuc(a1-4)]GlcNAc(b1-3)Gal(b1-3)[Fuc(a1-4)]GlcNAc
Summary of the method: as §1

[5] = molecular target: Neu5Ac(a2-3)Gal(b1-3)[Fuc(a1-4)]GlcNAc(b1-3)Gal(b1-4)[Fuc(a1-3)]GlcNAc
Summary of the method: as §1

[6] = molecular target: Neu5Ac(a2-3)Gal(b1-3)[GlcNAc(b1-6)]GalNAc
Summary of the method: as §1

[7] = molecular target: Neu5Ac(a2-3)Gal(b1-3)[Neu5Ac(a2-6)]GalNAc
Summary of the method: as §1

[8] = molecular target: Neu5Ac(a2-3)Gal(b1-3)[Neu5Ac(a2-6)]GlcNAc(b1-3)[Fuc(a1-3)[Gal(b1-4)]GlcNAc(b1-6)]Gal(b1-4)Glc
Summary of the method: as §1

[9] = molecular target: Neu5Ac(a2-3)Gal(b1-3)]Neu5Ac(a2-3)Gal(b1-4)]GlcNAc
Summary of the method: as §1

Neu5Ac(a2-3)Gal(b1-4)Glc = molecular target: Neu5Ac(a2-3)Gal(b1-4)Glc
Summary of the method: as §1

[10] = molecular target: Neu5Ac(a2-3)Gal(b1-4)GlcNAc
Summary of the method: as §1

[11] = molecular target: Neu5Ac(a2-3)Gal(b1-4)GlcNAc(b1-2)Man
Summary of the method: as §1

[12] = molecular target: Neu5Ac(a2-3)Gal(b1-4)GlcNAc(b1-2)Man(a1-3)[GlcNAc(b1-4)][Neu5Ac(a2-3)Gal(b1-4)GlcNAc(b1-2)Man(a1-6)]Man(b1-4)GlcNAc(b1-4)GlcNAc
Summary of the method: as §1

[13] = molecular target: Neu5Ac(a2-3)Gal(b1-4)GlcNAc(b1-2)Man(a1-3)[Neu5Ac(a2-3)Gal(b1-4)GlcNAc(b1-2)Man(a1-6)]Man(b1-4)GlcNAc(b1-4)GlcNAc
Summary of the method: as §1

[14] = molecular target: Neu5Ac(a2-3)Gal(b1-4)GlcNAc(b1-2)Man(a1-3)[Neu5Ac(a2-3)Gal(b1-4)GlcNAc(b1-2)Man(a1-6)]Man(b1-4)GlcNAc(b1-4)[Fuc(a1-6)]GlcNAc
Summary of the method: as §1

[15] = molecular target: Neu5Ac(a2-3)Gal(b1-4)GlcNAc(b1-2)Man(a1-3)[Neu5Ac(a2-6)Gal(b1-4)GlcNAc(b1-2)Man(a1-6)]Man(b1-4)GlcNAc(b1-4)GlcNAc
Summary of the method: as §1

[16] = molecular target: Neu5Ac(a2-3)Gal(b1-4)GlcNAc(b1-2)[Neu5Ac(a2-3)Gal(b1-4)GlcNAc(b1-4)]Man(a1-3)[GlcNAc(b1-4)][Neu5Ac(a2-3)Gal(b1-4)GlcNAc(b1-2)[Neu5Ac(a2-3)Gal(b1-4)GlcNAc(b1-6)]Man(a1-6)]Man(b1-4)GlcNAc(b1-4)GlcNAc
Summary of the method: as §1

[17] = molecular target: Neu5Ac(a2-3)Gal(b1-4)GlcNAc(b1-2)[Neu5Ac(a2-3)Gal(b1-4)GlcNAc(b1-4)]Man(a1-3)[GlcNAc(b1-4)][Neu5Ac(a2-3)Gal(b1-4)GlcNAc(b1-4)Man(a1-6)]Man(b1-4)GlcNAc(b1-4)GlcNAc
Summary of the method: as §1

[18] = molecular target: Neu5Ac(a2-3)Gal(b1-4)GlcNAc(b1-2)[Neu5Ac(a2-3)Gal(b1-4)GlcNAc(b1-6)]Man(a1-6)[Neu5Ac(a2-3)Gal(b1-4)GlcNAc(b1-2)Man(a1-3)][GlcNAc(b1-4)]Man(b1-4)GlcNAc(b1-4)GlcNAc
Summary of the method: as §1

[19] = molecular target: Neu5Ac(a2-3)Gal(b1-4)GlcNAc(b1-3)Gal
Summary of the method: as §1

[20] = molecular target: Neu5Ac(a2-3)Gal(b1-4)GlcNAc(b1-3)Gal(b1-3)GlcNAc
Summary of the method: as §1

[21] = molecular target: Neu5Ac(a2-3)Gal(b1-4)GlcNAc(b1-3)Gal(b1-4)GlcNAc
Summary of the method: as §1

[22] = molecular target: Neu5Ac(a2-3)Gal(b1-4)GlcNAc(b1-3)Gal(b1-4)GlcNAc(b1-2)Man(a1-3)[Neu5Ac(a2-3)Gal(b1-4)GlcNAc(b1-3)Gal(b1-4)GlcNAc(b1-2)Man(a1-6)]Man(b1-4)GlcNAc(b1-4)GlcNAc
Summary of the method: as §1

[23] = molecular target: Neu5Ac(a2-3)Gal(b1-4)GlcNAc(b1-3)Gal(b1-4)GlcNAc(b1-3)Gal(b1-4)GlcNAc
Summary of the method: as §1

[24] = molecular target: Neu5Ac(a2-3)Gal(b1-4)GlcNAc(b1-3)Gal(b1-4)GlcNAc(b1-3)Gal(b1-4)GlcNAc(b1-2)Man(a1-3)[Neu5Ac(a2-3)Gal(b1-4)GlcNAc(b1-3)Gal(b1-4)GlcNAc(b1-3)Gal(b1-4)GlcNAc(b1-2)Man(a1-6)]GalNAc
Summary of the method: as §1

[25] = molecular target: Neu5Ac(a2-3)Gal(b1-4)GlcNAc(b1-3)Gal(b1-4)GlcNAc(b1-3)GalNAc
Summary of the method: as §1

[26] = molecular target: Neu5Ac(a2-3)Gal(b1-4)GlcNAc(b1-3)Gal(b1-4)GlcNAc(b1-3)[Neu5Ac(a2-3)Gal(b1-4)GlcNAc(b1-3)Gal(b1-4)GlcNAc(b1-6)]GalNAc
Summary of the method: as §1

[27] = molecular target: Neu5Ac(a2-3)Gal(b1-4)GlcNAc(b1-3)Gal(b1-4)GlcNAc(b1-6)[Gal(b1-3)]GalNAc
Summary of the method: as §1

[28] = molecular target: Neu5Ac(a2-3)Gal(b1-4)GlcNAc(b1-3)Gal(b1-4)[Fuc(a1-3)]GlcNAc
Summary of the method: as §1

[29] = molecular target: Neu5Ac(a2-3)Gal(b1-4)GlcNAc(b1-3)GalNAc
Summary of the method: as §1

B1: Cp ZmpB (Clostridium perfringens), Q0TR08 (protein)
chain: MNKRKIAAIILATMITNLSATTIDVLAQELNTKNNSKVEVSHDDESHQARVSKFDLYNSDKLDAYNQEFQVSRSNIKSINNNGGKYNSSTIDKAIDGNLETHWETGKPNDANFTNEVVVTFNEITNIDRIVYSARRDSARGKGFAKEFEIYASLKDEGDDFNLVSSGEYTESTRDLVEIKFNPTDFKRLKFKFKKADQNWASAAEFMFYKEDKLNEKFNGLFTDSSMNKVSEEFNTLEKLNAFENELKDHPIYDLYKEGLNNARAILTETSENPTKATLGQITYNLNDDYNNQYRMPYKNIKAIKNNGRHYAAQNIEKAIDNDVNTYWETGTLNSSSFNNEVEVEFNDLVTLDRIVYGSRQSDLKGFAEEVYIYASRTSKGDTYKLVATGAHEATKGLVEAKFEPTEFKRVKFKFKKSKQNSATLNELMFYKPDEVYSSIPKLFTDGTMSELSEEFNSLEKINAFKEKAKNHPLYNDFNETIELAESLISNPRKEDVLELEMRGDSISEAKKRKVWNFQDWQITGLSARAGDKITVYVDVAEGDPTPTLLYKQSLTQHGGATSFQLKPGKNEITIPEINYESNGIPKDVIQGGDLFFTNYKSDSQKRAPKVRIEGASKYPVFILGKSDENEVMKELEAYVEKIKAEPKTTPNIFAVSSNKSLEFVQATYALDWYKKNNKTPKYTAEQWDQYIADAMGFWGFDNSKDVNSDFNFRIMPMVKNLSGGAFMNAGNGVIGIRPGNQDAILAANKGWGVAHELGHNFDTGGRTIVEVTNNMMPLFFESKYKTKTRITDQNIWENNTYPKVGLDDYSNNELYNKADSTHLAQLAPLWQLYLYDNTFYGKFERQFRERDFGNKNREDIYKSWVVAASDAMELDLTEFFARHGIRVDDKVKEDLAKYPKPDKKIYYLNDLAMNYKGDGFTENAKVSVSTSGSNGNIKLSFSVDDENKDNILGYEIRRDGKYVGFTSNDSFVDTKSNLDEDGVYVVTPYDRKLNTLNPIEVNALQPTLSVNPVITLALGEEFNEEEYIVAKDIKGNSLSESVKVKSSNVNTSKVGEYEVLYSLEDSKGNEYTKTSKVNVVSRKEYMSDLTPKQSSNGWGTVRKDKSISGGVIGLTRDGDFVDYNKGLGLHSNAEYVYDLEGKDYDYFESYVGVDKAMSSRPASSVIFKVLVDGEEKFNSGVMRSTTPQKYVKVDVKNAKELKLIVNDAGDGDSSDHASFGDAKLATLSSKPIIKGENLAYSMDEKVDLMKGITATDIEDGNITSKVQIKSSDFVEGKSGIFTVVYSVTDSDGLTSECSRTIAVTDKETQLSDLNWKSATIGSGSVRKDRAVSGNQIRLLNEDNSVETFAKGIGTHSYSEIVYNSEGYDIFDTWVGIDRHVADKKVSSVKFKVYVDGELKAETDVMRIDTPKKRLVVDVRNSKEIKLVVDVADNGNNWDHADWADAKFRNLAEYDASELNKAIEEAKKLDLNNYTEESSEALKNAISKGEEALLSKDKETINSALEELNKEMNSLVKVDLNAVINIPDKYLLKSIQNQLNKTGDITLGDMYSLTTLTLSGVEDLTGLENAKNLETLNMDYNEVKDLRPLSKLKKLNTLNAQEQFIAAGELKPSNGKVIGDSKVYNREGKNVAKTIRVVDKNGNTILEQDAKDEFTINTKDLSSGLYGVHVLFEDEGFSGVMFYLFNV
With B1 the “glycan array binding signal (z-score)” value [1] was 0.286, the “glycan array binding signal (z-score)” value [2] was 0.641 and the “glycan array binding signal (z-score)” value [3] was -0.312. The “glycan array binding signal (z-score)” value [4] was -0.348, the “glycan array binding signal (z-score)” value [5] was -0.478 and the “glycan array binding signal (z-score)” value [6] was -0.276. The “glycan array binding signal (z-score)” value [7] was -0.35, the “glycan array binding signal (z-score)” value [8] was -0.279 and the “glycan array binding signal (z-score)” value [9] was 0.061. For the same binder, the “glycan array binding signal (z-score)” value (Neu5Ac(a2-3)Gal(b1-4)Glc) was -0.134, the “glycan array binding signal (z-score)” value [10] was 0.027 and the “glycan array binding signal (z-score)” value [11] was 0.151. The “glycan array binding signal (z-score)” value [12] was -0.189, the “glycan array binding signal (z-score)” value [13] was -0.234 and the “glycan array binding signal (z-score)” value [14] was -0.471. The “glycan array binding signal (z-score)” value [15] was 0.255, the “glycan array binding signal (z-score)” value [16] was -0.425 and the “glycan array binding signal (z-score)” value [17] was 0.211. The “glycan array binding signal (z-score)” value [18] was -0.273, the “glycan array binding signal (z-score)” value [19] was -0.189 and the “glycan array binding signal (z-score)” value [20] was -0.122. For the same binder, the “glycan array binding signal (z-score)” value [21] was 0.257, the “glycan array binding signal (z-score)” value [22] was -0.223 and the “glycan array binding signal (z-score)” value [23] was -0.056. The “glycan array binding signal (z-score)” value [24] was 0.177, the “glycan array binding signal (z-score)” value [25] was 0.121 and the “glycan array binding signal (z-score)” value [26] was -0.003. The “glycan array binding signal (z-score)” value [27] was -0.272, the “glycan array binding signal (z-score)” value [28] was -0.07 and the “glycan array binding signal (z-score)” value [29] was -0.142.
